Laboratory results published in the supplement of paper PMC3334620.
Over roughly 33,000 sequences, “E-score (-0.5 to 0.5)” has its median near -0.04; the highest 2% begin near 0.36. The list shows a part of the results.

Biological target: T1, Hmlalpha2 (UniProt P0CY09)
T1 sequence: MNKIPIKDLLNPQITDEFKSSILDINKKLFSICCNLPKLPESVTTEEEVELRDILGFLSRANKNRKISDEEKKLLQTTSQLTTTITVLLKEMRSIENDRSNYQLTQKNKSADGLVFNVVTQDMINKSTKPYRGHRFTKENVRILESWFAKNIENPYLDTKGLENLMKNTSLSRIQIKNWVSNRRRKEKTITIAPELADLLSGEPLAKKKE
Assay: PBM E-score (8-mer binding enrichment) (E-score (-0.5 to 0.5)); higher = stronger / more preferred TF binding; most listed sequences are background and not binding sites
Conditions: protein concentration: 200 nM; construct: GST-full length
How it was run: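 Yeast transcription factors, full-length or as DNA-binding domains, were expressed with a GST tag using PURExpress in vitro transcription/translation. At about 100-200 nM they were applied to universal all-10-mer Agilent arrays, double-stranded by primer extension on fresh or once-stripped slides. Fluorescent anti-GST detected bound protein, and masliner normalised the scans. E-scores for ungapped eight-base words, pooled with reverse complements, came from the Universal PBM Analysis Suite.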

Sequence | PBM E-score
AAACAACA | 0.367
ATAATTTG | 0.088
ACGCCACC | -0.207
TCTGAAGA | -0.288
TCTCTGCA | -0.196
CGGGGATA | -0.149
CCACATCG | -0.0429
AAGTTGTA | 0.212
AAGGGTCG | 0.044
CGCATCCA | -0.0106
GTAGTGAC | 0.0202
GGCTGTAA | 0.0946
CATCGACG | -0.109
AGGCATTA | -0.149
AGATCTCA | -0.0072
GCTCGATA | -0.0994
CGGGGTCC | -0.218
GAGAACGA | -0.0321
GCCGTTGA | -0.0609
GCTTATGA | -0.00062
GGCCATGA | -0.217
GTTGTACA | 0.424
ACTGTCAC | -0.12
CAGGGTTA | -0.0331
AGACATCA | -0.0598

Sequence | PBM E-score
AGGTGTTA | 0.256
CGACGTCC | -0.0809
ACGACGCT | -0.183
GCTCGAGA | -0.169
CCCGTTAA | -0.0105
ACAATAAA | 0.027
ATAGCTAC | -0.00922
AACATTGG | 0.165
TCACTGAA | -0.0881
AAAACTCG | 0.225
CATCTCTC | -0.145
AGATGGAT | -0.265
AGTCGTTC | 0.103
CACCTCGA | -0.0332
ACTCAAAA | 0.093
CCTGCGCC | -0.269
ATTCTTAC | 0.238
CCCAGGTC | -0.261
ATTAGAGG | -0.157
ATATAGAC | 0.258
CACCGTAA | -0.0324
CCCCAGAC | -0.368
ACGCAACG | 0.286
GGAAATAC | 0.154
AGCGTTAC | 0.00608

Sequence | PBM E-score
AGAACGGA | -0.0269
AGTCCGAC | -0.126
ATGGAGAA | -0.0153
ATCCGTAG | -0.309
TAAGATGA | 0.0487
CTGCAATC | -0.107
GACAATAC | 0.211
CTGTCAGA | -0.135
CCTCGACA | 0.0653
CTACAGTA | 0.0622
CAGCCACC | -0.181
GTGAGGTA | -0.0193
CTCAGACC | -0.166
AGTAATAT | 0.245
CACAAAAG | 0.0681
CAGGGCTC | -0.275
CTAATCGC | -0.00515
CGAGAAAA | -0.103
GCGCTACC | -0.202
AAGAAGCA | 0.0176
TTATCAAA | 0.182
GCGAGGCA | -0.14
TATGAACA | 0.261
AAGACGCT | -0.212
ATTTAATA | 0.316

Sequence | PBM E-score
AAATGGAA | -0.0973
ATTGCGGA | -0.0134
CCGCAAGG | -0.153
CTAACGCA | 0.179
GAGTCCAC | -0.308
ACTCGAAT | -0.0605
CGTAGCGA | -0.114
ATTTTGTA | 0.202
CACACGAG | 0.152
ATTCTCCG | -0.172
AAACACGA | 0.383
AGATTATA | 0.0149
CAGCTTCA | -0.00309
TCAGCGAA | -0.0617
CGCGACCA | -0.00552
GGTGGGTA | -0.163
ATCCTTCG | -0.151
CACGATTA | 0.28
AGTCTGAC | -0.218
GATGGCAC | -0.25
AAAACTGA | -0.0592
GAACTCAC | -0.0178
CTTGAAGC | -0.0461
ATAGGCGC | -0.124
ACTAAAGT | 0.0015

Sequence | PBM E-score
AGGAAAGC | -0.203
CGACAATC | -0.19
ATTCCAGC | -0.0238
ACGTATAA | 0.321
ACCCCTAG | -0.287
CCCCGTCA | -0.299
AGTCTTCC | -0.0857
GAATTTGC | -0.0777
GGTGAGAC | -0.249
CGGATGCA | -0.272
AACTGCAA | -0.0415
ATGTTCCC | 0.0456
AGCACCAC | -0.192
CATAAAGA | 0.198
CTACGAAA | -0.141
GCCGTGCC | -0.164
TCAGTACA | 0.227
CTCTGACA | 0.132
AATACCGT | -0.00384
CCGCGGAA | -0.123
CCCGGACC | -0.173
CACCGTGC | -0.00506
CCCGACCG | -0.316
CTAGTCCA | -0.155
GAATCGGA | -0.0698

Sequence | PBM E-score
GGCAACGA | 0.0854
CGAAGGGA | -0.212
CGGTCTCC | -0.24
ACGATACG | 0.103
CAACCCCA | -0.0316
CAAAGTGA | -0.0862
CAGACACC | -0.248
AGTTTGAT | -0.0815
AACGCGAG | 0.107
TAGGATCA | -0.0383
ATGTCAAA | 0.354
AAACACTT | 0.141
GCTGCAGA | 0.0784
GACACTTA | 0.106
GCAACCCA | 0.0135
GCCCCGGA | -0.354
ACACGCAA | 0.35
AGACGTAT | 0.0644
GGCGCACC | -0.268
CCAAACCA | -0.126
AGTGATCA | -0.111
GTTATTAA | 0.323
AACTGCAG | -0.0779
ATAAAGGC | -0.216
ACCCGTAC | -0.091

Sequence | PBM E-score
AGAACTCA | -0.00582
AGTAGTGG | -0.0672
CGGGTCTA | 0.0357
ACTGACCC | -0.232
ACATGTCA | 0.402
AGGCGGGC | -0.35
AATTAGAA | 0.0299
ATCGGAGC | -0.31
ATAAGGGA | -0.0894
AGGCTCGC | -0.208
AACGTAAT | 0.379
CGAAGGAA | -0.0436
ATTCTAAA | 0.214
AGATTAAA | 0.218
CCATTGAC | -0.0334
CCAGCCGC | -0.247
AGAGTACG | -0.027
TCCGTTCA | 0.0122
GAGGGACA | -0.338
ATGTTAAT | 0.447
CATGCTCG | 0.0136
CAAAGGGC | -0.183
